Test results: the supplement of paper PMC7125110
± gives the standard error. Variants at the background level are over-represented here.

B1: glmS ribozyme (parent)
chain: AUAAAAGCGCCAGAACUACAGAAAUGUAGUUGACGAGGAGGAGGUUUAUCGAAUUUUCGGCGGAUGCCUCCAAA

Experiments:
Conditions in all cases: with glucosamine-6-phosphate
glucosamine-6-phosphate [1] = variants of: B1; assay: self-cleavage kobs at 40 uM GlcN6P; higher = faster cleavage; RNA array
Procedure, shortened: (§1)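 A hybridised Cy3 probe tracked barcoded ribozyme variants, transcribed in situ by E. coli RNA polymerase on sequenced MiSeq chips, at 37 °C. The variants received 40 μM to 10 mM glucosamine-6-phosphate in HEPES/KCl/Mg(OAc)2 buffer. kobs came from decay fits and kcat and KM from weighted Michaelis–Menten fits.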

glucosamine-6-phosphate [2] = variants of: B1; assay: self-cleavage kobs at 640 uM GlcN6P; higher = faster cleavage; RNA array
Procedure, shortened: as §1

glucosamine-6-phosphate [3] = variants of: B1; assay: self-cleavage kobs at 160 uM GlcN6P; higher = faster cleavage; RNA array
Procedure, shortened: as §1

glucosamine-6-phosphate [4] = variants of: B1; assay: self-cleavage kobs at 2500 uM GlcN6P; higher = faster cleavage; RNA array
Procedure, shortened: as §1

glucosamine-6-phosphate [5] = variants of: B1; assay: self-cleavage kobs at 10000 uM GlcN6P; higher = faster cleavage; RNA array
Procedure, shortened: as §1

Variant | self-cleavage kobs at 40 uM GlcN6P (glucosamine-6-phosphate [1]) [s⁻¹] | self-cleavage kobs at 640 uM GlcN6P (glucosamine-6-phosphate [2]) [s⁻¹] | self-cleavage kobs at 160 uM GlcN6P (glucosamine-6-phosphate [3]) [s⁻¹] | self-cleavage kobs at 2500 uM GlcN6P (glucosamine-6-phosphate [4]) [s⁻¹] | self-cleavage kobs at 10000 uM GlcN6P (glucosamine-6-phosphate [5]) [s⁻¹]
AUAAAAGCGCCAGAACUACAGAAAUGUAGUUGACGAGGAGGAGGUGUAUCUAAUUUUCGGCGGAUGCCUCCAAA [U46G G51U] | < 1e-05 | < 1e-05 | < 1e-05 | < 1e-05 | < 1e-05
AUAAAAGCGCCAGAACUACAGAAAUGUAGUUGACGAGGAGGAGGUCUAUCGAAUUUUCGGCGUAUGCCUCCAAA [U46C G63U] | < 1e-05 |  |  |  | < 1e-05
AUAAAAGCGCCAGAACUACAGAAAUGUAGUUGACGAGGAGGAGGUCUAUCGAAUUUUCGGCGCAUGCCUCCAAA [U46C G63C] | < 1e-05 | < 1e-05 |  | < 1e-05 | 
AUAAAAGCGCCAGAACUACAGAAAUGUAGUUGACGAGGAGGAGGUUAAUCGAAUUUUCCGCGGAUGCCUCCAAA [U47A G59C] | < 1e-05 | < 1e-05 | < 1e-05 |  | 
AUAAAAGCGCCAGAACUACAGAAAUGUAGUUGACGAGGAGGAGGUCUAUCGAAUUGUCGGCGGAUGCCUCCAAA [U46C U56G] | 5.6e-05 ± 9.5e-06 | 0.000736 ± 8.1e-05 | 0.000159 ± 3e-05 | 0.00128 ± 0.00017 | 0.00164 ± 0.00018
AUAAAAGCGCCAGAACUACAGAAAUGUAGUUGACGAGGAGGAGGUUAAUCGAAUUUUCGGCGGAUUCCUCCAAA [U47A G66U] | 0.00013 ± 2.5e-05 | 0.00141 ± 0.00028 |  | 0.00244 ± 0.00069 | 0.00506 ± 0.00076
AUAAAAGCGCCAGAACUACAGAAAUGUAGUUGACGAGGAGGAGGUUAAUCGAUUUUUCGGCGGAUGCCUCCAAA [U47A A53U] | 0.000547 ± 6.1e-05 |  |  |  | 
AUAAAAGCGCCAGAACUACAGAAAUGUAGUUGACGAGGAGGAGGUGUAUCGAAUUUUCGGCGGAUGCCUUCAAA [U46G C70U] | 0.000256 ± 2.3e-05 | 0.00125 ± 0.0002 | 0.000556 ± 8.8e-05 | 0.00235 ± 0.00055 | 0.00705 ± 0.00083
AUAAAAGCGCCAGAACUACAGAAAUGUAGUUGACGAGGAGGAGGUUCAUCGAAUUUUCGUCGGAUGCCUCCAAA [U47C G60U] | < 1e-05 |  |  |  | 
AUAAAAGCGCCAGAACUACAGAAAUGUAGUUGACGAGGAGGAGGUUAAUCGAAUUCUCGGCGGAUGCCUGCAAA [U47A U56C C70G] | < 1e-05 |  |  |  | 
AUAAAAGCGCCAGAACUACAGAAAUGUAGUUGACGAGGAGGAGGUGUAUCGAUUUUUCGGCGGAUGCCCCCAAA [U46G A53U U69C] | 7.38e-05 ± 2.7e-05 |  |  |  | 0.00109 ± 0.0003
AUAAAAGCGCCAGAACUACAGAAAUGUAGUUGACGAGGAGGAGGUUCAUCGAAUUUUCGGCGGGUGCCUCCAAA [U47C A64G] | 0.000131 ± 1.7e-05 | 0.00115 ± 0.00027 | 0.000324 ± 9e-05 | 0.0019 ± 0.00068 | 0.00499 ± 0.00066
AUAAAAGCGCCAGAACUACAGAAAUGUAGUUGACGAGGAGGAGGUUCAUCGAAUUUUCGGCGGCUGCCUCCAAA [U47C A64C] | < 1e-05 |  | < 1e-05 |  | 
AUAAAAGCGCCAGAACUACAGAAAUGUAGUUGACGAGGAGGAGGUUAAUCGAAUUUUCGGCUGAUGCCUCCAAA [U47A G62U] | < 1e-05 | < 1e-05 | < 1e-05 |  | 
AUAAAAGCGCCAGAACUACAGAAAUGUAGUUGACGAGGAGGAGGUGUAUCGAAUUUUCGGCGCAUGCCUCCAAA [U46G G63C] | < 1e-05 | < 1e-05 | < 1e-05 | < 1e-05 | < 1e-05
AUAAAAGCGCCAGAACUACAGAAAUGUAGUUGACGAGGAGGAGGUGUAUCGAAUUUUCGGCGUAUGCCUCCAAA [U46G G63U] | < 1e-05 | < 1e-05 | < 1e-05 | < 1e-05 | < 1e-05
AUAAAAGCGCCAGAACUACAGAAAUGUAGUUGACGAGGAGGAGGUUCAUCGAAUUGUCGGCGGAUGCCUCCAAA [U47C U56G] | 7.97e-05 ± 1.3e-05 | 0.000708 ± 8.7e-05 | 0.000196 ± 4e-05 | 0.00108 ± 0.00025 | 0.00243 ± 0.0003
AUAAAAGCGCCAGAACUACAGAAAUGUAGUUGACGAGGAGGAGGUGUAUCGAAUUUUCGGCGGAUGCGUGCAAA [U46G C68G C70G] | < 1e-05 |  |  |  | 
AUAAAAGCGCCAGAACUACAGAAAUGUAGUUGACGAGGAGGAGGUGUAUCGAAUUAUCGGCGGAUGCCUCCAAA [U46G U56A] | 5.1e-05 ± 7.3e-06 | 0.000601 ± 0.00017 |  |  | 0.00224 ± 0.00042
AUAAAAGCGCCAGAACUACAGAAAUGUAGUUGACGAGGAGGAGGUGUAUCGAAUUUUCGGCGGAGGCCUCCAAA [U46G U65G] | 4.1e-05 ± 8.8e-06 | 0.000467 ± 7.5e-05 | 0.000189 ± 3.4e-05 | 0.00124 ± 0.00017 | 0.0019 ± 0.0003
AUAAAAGCGCCAGAACUACAGAAAUGUAGUUGACGAGGAGGAGGUCUAUCGAAUUUUCGGCCGAUGCCUCCAAA [U46C G62C] | < 1e-05 |  |  |  | < 1e-05
AUAAAAGCGCCAGAACUACAGAAAUGUAGUUGACGAGGAGGAGGUCUAUCGAAUUUUCGGCAGAUGCCUCCAAA [U46C G62A] | < 1e-05 |  | < 1e-05 | < 1e-05 | < 1e-05
AUAAAAGCGCCAGAACUACAGAAAUGUAGUUGACGAGGAGGAGGUCUAUCGAAUCUUCGGCGGAUGCCUCCAAA [U46C U55C] | 0.000129 ± 1.9e-05 | 0.00108 ± 0.00013 | 0.000217 ± 4.2e-05 | 0.00291 ± 0.00042 | 0.00515 ± 0.00071
